Test results: publication PMC2254625, “The crystal structure of the putative peptide-binding fragment from the human Hsp40 protein Hdj1” (BMC Structural Biology, 2008)

Target: the molecule itself
Experiment: crystal structure; hanging drop vapor diffusion, 100 mM citric acid buffer (pH 5.5), 25% PEG400, room temperature; space group C222(1); dimer formed by a crystallographic two-fold axis; 2.7 Å

B1: human type II Hsp40 Hdj1 putative peptide-binding fragment ([…]) (domain or fragment)
chain: not shown
notes: […] except 228-230 were modelled in the crystal structure; The tag is inferred from the purification on a Nickel-chelating column; also called Hdj1 fragment; Hdj1 ([…]); source: E. coli, purified (Nickel-chelating column, gel filtration Superdex-75)
Question: How did the “stoichiometry N” value turn out when B1 was run?
Answer: 2
